# Laboratory results from PubChem BioAssay AID902 (National Center for Advancing Translational Sciences (NCATS), 2007).
# Among all 130,000 compounds or so, about 1,900 (1.5%) were called active. Inconclusive means that the source gave no clear call. Such entries were picked first, then a sample of the others. Calls follow the shape of the dose curve; as a rule, active = well fitted cell-killing curve with a large enough effect; inconclusive = small, poorly fitted or top-dose-only effect; inactive = no such curve, though single readings can be large or run the other way. Potencies of inconclusive entries are doubtful fits and often do not repeat.
# Assay: qHTS Screen for Compounds that Selectively Target Cancer Cells with p53 Mutations: Cytotoxicity of p53ts Cells at the Nonpermissive Temperature; also: nearly all actives have a fitted effect of over 55% in size
# Settings: H1299-p53A138V viability at 39C, ATP luminescence, 24 h; activity change, negative = cell killing: at 46.1 µM (top of the series)
# % is scaled to controls: 0 for no effect and ±100 for the full control effect; potency is read from the fitted curve at half-maximal effect; tags tell the direction and shape of the fitted curve.
Structure (SMILES),Potency,"activity change, negative = cell killing"
OC[C@@H]1NC[C@@H](O)[C@H]1O,inactive,
Cc1ccc(O)c(NC(=O)CCSc2nc(-c3ccco3)cc(C(F)(F)F)n2)c1,"inconclusive: 31.6 µM [cytotoxic, single point]",
COc1ccc(Cl)cc1NS(=O)(=O)c1c(C)[nH]c(=O)[nH]c1=O,"inconclusive: 0.0501 µM [cytotoxic, full curve, poor fit]",
Cc1cc(NC(=O)c2cccc(F)c2)ncc1NC(=O)c1ccco1,"inconclusive: 25.1 µM [cytotoxic, single point]",
C/C(O)=C(/N=O)C(=O)Nc1ccccc1,inactive,
CN(C)c1ccc(NC(=O)CSC2=Nc3ccccc3C3=NC(CC(=O)NCc4ccc5c(c4)OCO5)C(=O)N23)cc1 (stereo not given),"inconclusive: 25.1 µM [cytotoxic, partial curve, poor fit]",
CC(C)C(=O)c1cc2c(cc1NC(=O)c1ccccc1F)OCCO2,"inconclusive: 0.01 µM [cytotoxic, full curve, poor fit]",
Cc1ccc(-n2c(SCc3ccccc3C)nc3[nH]ncc3c2=O)cc1C,active: 25.1 µM,
N#C/C(=C/c1ccc(N2CCCCCC2)o1)c1ccc(F)cc1,inactive,
CC(=O)N1CCCc2ccc(NC(=O)c3ccc(C(F)(F)F)cc3)cc21,inactive,
COCC(=O)O[C@]1(CCN(C)CCCc2nc3ccccc3[nH]2)CCc2cc(F)ccc2[C@@H]1C(C)C,"inconclusive: 15.8 µM [cytotoxic, single point]",
C[C@@]12CC(=O)[C@@H]3[C@@H](CCC4=CC(=O)CC[C@]43C)[C@@H]1CC=C2CC(=O)O,,inactive: 11.8% [at 9.22 µM]
CCCCCCOc1ccc(/C(N)=N/O)cc1,"inconclusive: 12.6 µM [cytotoxic, single point]",
CCc1ccc(NC(=O)N2CCN(c3nnc(C)c4c(C)n(-c5ccc(Cl)cc5)nc34)CC2)cc1,"inconclusive: 31.6 µM [cytotoxic, single point]",
COc1cccc(NC(=O)c2csc3c2CCCCC3)c1,"inconclusive: 15.8 µM [cytotoxic, single point]",
Cc1ccc(NC(=O)c2ccc(F)c(S(=O)(=O)NCCc3ccccc3)c2)cc1F,"inconclusive: 35.5 µM [cytotoxic, single point]",
Cc1cc(C)c2c(CC(=O)NCc3ccco3)coc2c1,inactive,
Cc1cc(OCC(=O)NCCCN2CCOCC2)cc(C)c1Cl,inactive,
COc1ccc(N2C(=NC(C)=O)SC3CS(=O)(=O)CC32)cc1OC (stereo not given),inactive,
CCCSc1ncc(Cl)c(C(=O)NCc2ccc(C)cc2)n1,inactive,
